Data from patent US11178870B2 (priority 2017, dated 2021).

Assays:
[1] = system: Phytophthora infestans; assay type: in vivo; settings: Table 7, Test F
[2] = system: Colletotrichum orbiculare; settings: 250 ppm sprayed (2.5 ml/pot) before inoculation; assessed 6 to 10 days after inoculation
[3] = system: Magnaporthe grisea; assay type: in vivo; settings: Table 7, Test A

SMILES | control value, Test F (late blight on tomato) [1] | control value, Test H (anthracnose on cucumber) [2] | control value, Test A (blast on rice) [3]
CCn1c(-c2c(F)cccc2F)c(-c2sccc2Br)cc(Cl)c1=O [Compound 365] | L (L shows the control value of 50% or less) | H (H shows the control value more than 50%) | H (H shows the control value more than 50%)
O=c1ccc(-c2ccsc2Cl)c(-c2c(F)cccc2F)n1CC(F)F [Compound 366] | L (L shows the control value of 50% or less) | H (H shows the control value more than 50%) | H (H shows the control value more than 50%)
CCn1c(-c2ccc(F)cc2C)c(-n2cc(C)cn2)ccc1=O [Compound 367] | L (L shows the control value of 50% or less) | L (L shows the control value of 50% or less) | L (L shows the control value of 50% or less)
CCn1c(-c2ccc(NC)cc2F)c(-n2ncc(C)c2Cl)cc(Br)c1=O [Compound 368] | L (L shows the control value of 50% or less) | L (L shows the control value of 50% or less) | L (L shows the control value of 50% or less)
CCn1c(-c2ccc(F)cc2C)c(-n2ncc(C)c2Cl)cc(Cl)c1=O [Compound 369] | L (L shows the control value of 50% or less) | H (H shows the control value more than 50%) | H (H shows the control value more than 50%)
CCn1c(-c2ccc(F)cc2C)c(-n2cc(C)cn2)cc(Br)c1=O [Compound 370] | L (L shows the control value of 50% or less) | – | H (H shows the control value more than 50%)
